Test results from the supplement of paper PMC10338343.
± gives the standard deviation. This is a selection; strong and weak results do not stand in their true shares.

System: MIWI (PIWIL1) piRISC loaded with piRNA #1 (30 nt)
Test: pre-steady-state target cleavage rate (min^-1); MIWI and MILI are mouse PIWI proteins and EfPiwi is from a freshwater sponge; tags in brackets are library labels; higher = faster piRNA-guided slicing of the target
Settings: guide: piRNA #1 5'p-UGAGGUAGUAGGUUGUAUAGUAUCCAGAGG; auxiliary factor: 500 nM mouse GTSF1
How it was run: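 The pre-steady-state cleavage rate was derived from a burst-and-steady-state fit of Cleave-'n-Seq data. For these assays, 1 nM active affinity-purified piRISC loaded with a single synthetic guide was mixed with […] a transcribed, DNA-blocked target RNA library in HEPES–potassium acetate buffer at 33 °C, with or without 500 nM GTSF1 partner protein, for 0–8 or 0–960 min. Sequencing counts of uncleaved targets were normalised to depth and to weakly complementary targets, and k3 was capped at 0.0001 min^-1 after three trials were pooled.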
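Also: 1 nM active piRISC with 0.1 nM target library at 33 °C single turnover.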

Row | Sequence | pre-steady-state target cleavage rate
1 | GGAGACCUUACUAUACAACCUAACUACCUCA | 0.0245 ± 0.0041
2 | CCUCUGGAUACUAAUCAACCUACUACCUCA | 1.58 ± 0.097
3 | GGAGUGGAUACUAUACAACCUACAAGCUCA | 0.0042 ± 0.002
4 | GGAGACCUAUCUUUACAACCUACUUCCUCA | 0.0134 ± 0.0045
5 | GGAGAGGAUACUAUACAACCUAAUACCUCA | 0.651 ± 0.05
6 | GGAGACGAUACUAUACAACCUACUACCAGA | 0.562 ± 0.053
7 | GGAGACCUAACUAUACAUCCUAGUACCUCA | 0.157 ± 0.027
8 | GGAGAGGAUACUAUUCAACGUACUACCUCA | 0.114 ± 0.017
9 | GCUCUGGAUCCUAUACAACCUACUACCUCA | 1.16 ± 0.11
10 | GGACUGGUUACUAUACAACCUACUAGCUCA | 0.0585 ± 0.015
11 | GCUCUGGAUACUAUAGAACCUACUACCACA | 0.205 ± 0.026
12 | GGACUGGAUACUAUACAACGUACUACCACA | 0.604 ± 0.06
13 | GCUCUGGAUAGUAUAGAACCUACUACCUCA | 0.714 ± 0.063
14 | GGAGACCUAACUAUACAUCCUACUAGCUCA | 0.175 ± 0.034
15 | GGAGACCUUACUAUACAACCUUCUACGUCA | 0.274 ± 0.034
16 | GGAGACCUAUCAUACAACCUACUACCUCA | 0.233 ± 0.065
